Measurements as given in the RNAGym collection of RNA variant scans (doi:10.7554/elife.90254).
Read counts are not given, so values of variants with three or more changes are uncertain.

B1: LINE1-mini (parent)
chain: GGCAGAGCUCAACACAGCGUGGCAAAGUGGCUGUGGCUAGACUGCC

Variants of: B1
Assay: self-cleavage, relative activity (ratio to wild type); higher = more cleavage; in vitro, sequencing; the parent is a self-cleaving ribozyme

| Variant | self-cleavage |
| --- | --- |
| A4G C18A G19A C37U G44U | 0.06 |
| A4G C18A G29A G36A | 0.15 |
| A4G C18A G30C C31U | 0.05 |
| A4G C18A U28G U43A | 0.1 |
| A4G C18G A24G | 0.12 |
| A4G C18G A41C | 0.13 |
| A4G C18G G30U | 0.48 |
| A4G C18G U20A A26C | 1.77 |
| A4G C18U G19A G35A G44U | 0.02 |
| A4G C18U G21U A24U G33U | 0.09 |
| A4G C18U G36C G44U | 0.02 |
| A4G C23U A25G | 0.14 |
| A4G C23U C42A | 0.06 |
| A4G C31G A39U | 0.01 |
| A4G C31U A41U | 0.01 |
| A4G C31U G35A U38G | 0.02 |
| A4G C31U U38A | 0.01 |
| A4G C37A U43A G44U | 0.05 |
| A4G C42G C45A | 0.01 |
| A4G C45A C46G | 0.17 |
| A4G G5A A12C G22A G44U | 0.01 |
| A4G G5A G17C G36U G44C | 0.05 |
| A4G G5C G7C | 0.16 |
| A4G G5C G17A | 0.04 |

| Variant | self-cleavage |
| --- | --- |
| A4G G5C U32C | 0.11 |
| A4G G5U A16U U43A C45A | 0 |
| A4G G5U C8U C31A G35U G36C A41U C42A | 0.28 |
| A4G G5U C31U | 0.03 |
| A4G G5U G21U U43C | 0.11 |
| A4G G5U U20C C23U G33C A41G | 0.03 |
| A4G G7A A24C G27C | 0.03 |
| A4G G7A C23A A24G | 0.23 |
| A4G G7A U34A | 0.23 |
| A4G G7C C8U C42A | 0.29 |
| A4G G7C C13G C31A C42A | 0.05 |
| A4G G7C G17U C42U | 0.16 |
| A4G G7C U9C G21U U43G | 0.02 |
| A4G G7C U32A C42U | 0.04 |
| A4G G7U A14C G17A C23U | 0.15 |
| A4G G7U C8A A11C G29A | 0.08 |
| A4G G7U C8U G29U | 0.25 |
| A4G G7U G21C A41U | 0.08 |
| A4G G7U G27U | 0.42 |
| A4G G7U G35U G36C | 0.05 |
| A4G G7U U38C C45G | 0.17 |
| A4G G17C A25U C42U | 0.12 |
| A4G G17C C23A C31A G36C | 0.02 |
| A4G G17C G27A G29C G30A | 0.19 |

| Variant | self-cleavage |
| --- | --- |
| A4G G17C G35C G40C | 0.06 |
| A4G G17U G21A A39C | 0.02 |
| A4G G17U G30U C45G | 0.03 |
| A4G G17U G33U | 0.04 |
| A4G G19A C23G | 0.51 |
| A4G G19C G35U | 0.06 |
| A4G G19C U28C U34G C45G | 0.02 |
| A4G G19U G29A G35A | 0.04 |
| A4G G19U U20C G33U | 0.06 |
| A4G G21A A26U | 1.25 |
| A4G G21A C37A | 2.37 |
| A4G G21A G44U | 0.07 |
| A4G G21C C23U | 0.63 |
| A4G G21C G29U G44C C45U | 0.01 |
| A4G G21U A26U | 0.35 |
| A4G G21U G27A | 0.15 |
| A4G G21U G33U | 0.17 |
| A4G G21U U28G | 0.18 |
| A4G G21U U34G | 0.05 |
| A4G G21U U43A | 0.25 |
| A4G G22A A24U | 0.46 |
| A4G G22C A39U | 0.13 |
| A4G G22U G27U C37U | 0.04 |
| A4G G27U C31A G40C | 0.01 |

| Variant | self-cleavage |
| --- | --- |
| A4G G29A A39U | 1.13 |
| A4G G29C C37G C42G U43G | 0.02 |
| A4G G29U U38G C42G | 0.44 |
| A4G G30A G40U | 0.53 |
| A4G G30C C37A | 0.56 |
| A4G G30C G33U | 0.03 |
| A4G G30U C31A | 0.3 |
| A4G G33A G36U | 0.1 |
| A4G G33C G40C C46U | 0.01 |
| A4G G35A C42U G44C | 0 |
| A4G G40A C42A | 0.26 |
| A4G G40A U43A G44U | 0.12 |
| A4G G40C C42A | 0.06 |
| A4G U9A C13G | 0.28 |
| A4G U9A G17A G21U G30C G33A C46A | 0 |
| A4G U9A U20A G27U | 0.06 |
| A4G U9C A24C C31G | 0.01 |
| A4G U9C C13A A14G G17C A24C A26C G33U | 0.02 |
| A4G U9G G22U G33U | 0.26 |
| A4G U9G U20A A41U C42U | 0.03 |
| A4G U9G U20G G30C C46G | 0.01 |
| A4G U20A G22A G40C | 0.09 |
| A4G U20A G33C | 0.2 |
| A4G U20C U34G | 0.06 |

| Variant | self-cleavage |
| --- | --- |
| A4G U20G C42U | 0.07 |
| A4G U20G G22C | 0.21 |
| A4G U20G G22U C31U | 0.02 |
| A4G U20G U34C A41C | 0.11 |
| A4G U28A G35C | 0.03 |
| A4G U28A U38A | 0.68 |
| A4G U32C G35A U38G A41U | 0.03 |
| A4G U32G G33A | 0.08 |
| A4G U34C U43C | 0.02 |
| A4G U38A A39G | 0.33 |
| A4G U43A C46G | 0.12 |
| A4U A6C A16G G27A U28A G44U | 0.01 |
| A4U A6C C10A A25C U32G C46U | 0.01 |
| A4U A6C C13U U28G U32G | 0.02 |
| A4U A6C C23U U28G G35U | 0.08 |
| A4U A6C G29A G30C | 0.03 |
| A4U A6C U9C A11G U20A G27A C37A U43A | 0.01 |
| A4U A6C U9C G33U A39U G40U | 0.03 |
| A4U A6G G17U | 0.22 |
| A4U A6G G22U U28A | 0.25 |
| A4U A6G U20A C23U G30C A39C G40U | 0.04 |
| A4U A6U G7C A12U C13U U28C | 0.07 |
| A4U A6U G29A G33U G36A | 0.06 |
| A4U A6U U9A | 0.05 |

| Variant | self-cleavage |
| --- | --- |
| A4U A6U U28A | 0.11 |
| A4U A11C G36C | 0.02 |
| A4U A11U A16G A26C | 0.03 |
| A4U A11U C23U G44U | 0.01 |
| A4U A11U G17U U20C C37A G44U | 0.02 |
| A4U A11U G22A A25C | 0.02 |
| A4U A12C C18U G33C | 0.01 |
| A4U A12G C23G | 0.01 |
| A4U A14C G17U C23U | 0.11 |
| A4U A14C G21U | 0.08 |
| A4U A14C G30U | 0.1 |
| A4U A14G G17A A39U C45A | 0.01 |
| A4U A14G G21U U34G C37A U43C | 0.04 |
| A4U A14G G30A | 0.11 |
| A4U A14U A16G G22A G33U | 0.09 |
| A4U A14U C15A | 0.06 |
| A4U A14U G17A C18U U34C G36U | 0.02 |
| A4U A14U G21U | 0.18 |
| A4U A14U G27A C42U | 0.11 |
| A4U A16C C23G U38G C45U | 0.01 |
| A4U A16G A25U A26U | 0.04 |
| A4U A16G G30A A41U | 0.06 |
| A4U A16U G17A A26G G33C U43C | 0.1 |
| A4U A16U G17U | 0.06 |

| Variant | self-cleavage |
| --- | --- |
| A4U A24G C37A U38A | 0.03 |
| A4U A24G C45A | 0.1 |
| A4U A24U A26C | 0.16 |
| A4U A24U C37U G40A C42A | 0.01 |
| A4U A24U G27A G30U G33U G40U U43G C46A | 0.14 |
| A4U A24U G29U G30C C42A G44U | 0 |
| A4U A25C U28C A41U C46G | 0.01 |
| A4U A25G G29A U34A A39C | 0.2 |
| A4U A26G C37A G40U | 0.12 |
| A4U A26G U28C G36A C46U | 0.05 |
| A4U C8A C15A | 0.16 |
| A4U C8A C18U U20G | 0.05 |
| A4U C8A G22C | 0.08 |
| A4U C8A G22U G27A U34G C46G | 0.02 |
| A4U C8A G35A | 0.31 |
| A4U C8A G40U | 0.35 |
| A4U C8A U9G C15U G21U C31A C46A | 0.02 |
| A4U C8A U28C | 0.31 |
| A4U C8G C18A G19A U28G | 0.03 |
| A4U C8G G21C A25G | 0.02 |
| A4U C8G G22C A25G | 0.05 |
| A4U C8G G30U C31A U32A | 0.03 |
| A4U C8G U20G G35C C45A | 0.02 |
